Laboratory results as given in the BET-seq Pho4 binding data (Le et al. 2018).
Some of the results follow. Values were computed here from the reads of four pooled replicates and scatter widely.

The sequences below were run against T1, Pho4 (S. cerevisiae) (UniProt P07270) (assay: relative binding free energy (BET-seq); higher = weaker binding). Settings: reference: library average.
T1 sequence: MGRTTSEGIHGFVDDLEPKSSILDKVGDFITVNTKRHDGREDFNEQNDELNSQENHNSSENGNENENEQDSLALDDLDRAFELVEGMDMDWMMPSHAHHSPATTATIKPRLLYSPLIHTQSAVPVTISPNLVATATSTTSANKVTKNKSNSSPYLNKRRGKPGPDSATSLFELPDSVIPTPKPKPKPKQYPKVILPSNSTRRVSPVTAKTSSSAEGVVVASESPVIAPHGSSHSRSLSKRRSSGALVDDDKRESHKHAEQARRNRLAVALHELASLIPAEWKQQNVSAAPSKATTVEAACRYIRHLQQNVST

Relative binding free energy, -0.28 kcal/mol:
TCGGCCACGTGGGGGT

Relative binding free energy, 0.15 kcal/mol:
TCGAGCACGTGAGTTG, TGGCACACGTGTGGCT, ATGTGCACGTGTGAGA, TCGATCACGTGTGGAT

Relative binding free energy, 0.01 kcal/mol:
GTTGGCACGTGGAGTT, GGTGACACGTGGCTAG, GGGGACACGTGGTCCG, GTTATCACGTGGGAAG, CGGGTCACGTGCTTTT

Relative binding free energy, -0.13 kcal/mol:
GTCCGCACGTGGGGTT, GGGAGCACGTGCAAGG, AGTCGCACGTGGTTAA, TTTAACACGTGTGCGT, AGTCGCACGTGGGTTT, CGTCGCACGTGGGGGA, AGAAGCACGTGGGTGT

Relative binding free energy, 0.24 kcal/mol:
AGTGTCACGTGTCAAT, GTTTTCACGTGCTAAT, TTTGTCACGTGAAGGG

Relative binding free energy, 0.29 kcal/mol:
AAGTTCACGTGAAGGT, GTGGTCACGTGTGGAT, TTCTTCACGTGTCTAT, GTTTTCACGTGCTGAG, GCTTTCACGTGGGGCT, GGATTCACGTGATATT

Relative binding free energy, 0.38 kcal/mol:
GTGCTCACGTGAAGGA

Relative binding free energy, 0.18 kcal/mol:
CTGTTCACGTGTGATA, ATTGGCACGTGAGCAA, CGTATCACGTGGAGAT, GTAGTCACGTGTTAAT, AGGATCACGTGTTTTA, GATTGCACGTGTGCTG, CCTTTCACGTGATGTT, TTTCTCACGTGGTGCA, TTCGTCACGTGATCTT

Relative binding free energy, 0.27 kcal/mol:
CTTCTCACGTGTTGGA, GAATGCACGTGTGAAT, TGGCTCACGTGGTATA, GCGTTCACGTGGCGGT

Relative binding free energy, -0.17 kcal/mol:
GTGTCCACGTGGGTGC, CGGGCCACGTGGGGGA, GGACGCACGTGGTGTT

Relative binding free energy, 0.17 kcal/mol:
GGGATCACGTGGCATG, ATGGGCACGTGAAAAT, TGTATCACGTGATTAT, TGGGTCACGTGATCCG, CATAGCACGTGATTTG, CGTTTCACGTGGTTCT, TGGCCCACGTGAGGGT

Relative binding free energy, -0.01 kcal/mol:
ATCGGCACGTGGATTA, ATTGTCACGTGGTGGA, TTATACACGTGTAGGG, TATGTCACGTGCTGAG, GGAGGCACGTGGAAGA, AGTAACACGTGTTGGT, CAATACACGTGTGGGT, ATTGACACGTGTTTTA

Relative binding free energy, 0.32 kcal/mol:
TTTTTCACGTGACAGT

Relative binding free energy, 0.03 kcal/mol:
GCGGTCACGTGGTTTA, TTATGCACGTGAGTTA, TATTTCACGTGGGCGA

Relative binding free energy, -0.18 kcal/mol:
GGGGGCACGTGGGTCA, TAGTGCACGTGGCGTG, TATGGCACGTGCTGTT

Relative binding free energy, 0.11 kcal/mol:
TACGACACGTGATGGT, ATGTGCACGTGGAACG, GGTAACACGTGGAAGT, GGAAGCACGTGATGGC, TGTGGCACGTGACGTT

Relative binding free energy, 0.21 kcal/mol:
GTATTCACGTGCTTTT, GTTATCACGTGCTTGG, AGGTTCACGTGTATCT

Relative binding free energy, 0.46 kcal/mol:
TAGTTCACGTGGCAGA

Relative binding free energy, -0.14 kcal/mol:
ACCGGCACGTGGGTTT, ATGGCCACGTGGGATA

Relative binding free energy, -0.16 kcal/mol:
AGTAACACGTGGGGGC

Relative binding free energy, -0.19 kcal/mol:
TAACACACGTGGGGGT

Relative binding free energy, 0.37 kcal/mol:
TTGTTCACGTGTTTGG

Relative binding free energy, 0.14 kcal/mol:
TGCCTCACGTGCGGTG, GGGATCACGTGCAGGT

Relative binding free energy, -0.12 kcal/mol:
ATTGCCACGTGTTTTT, TGTGTCACGTGGCAAG, AGAGACACGTGGTTGT, AGTGACACGTGCTGTT, GTAGTCACGTGGGCGA

Relative binding free energy, 0.4 kcal/mol:
TAGTACACGTGAGTTT, TGGTTCACGTGTGGTT, GATCTCACGTGATTGG

Relative binding free energy, -0.09 kcal/mol:
TCAGGCACGTGCTTTG, GTAGACACGTGGTATA

Relative binding free energy, 0.3 kcal/mol:
CTGTTCACGTGCGGTT, TCTGACACGTGAGTGG, TGAAACACGTGAGGAG, CCGGTCACGTGAGTGG, GGTTTCACGTGCTGGT, GCGGGCACGTGAAGGC

Relative binding free energy, 0.31 kcal/mol:
TGGTTCACGTGAGTAC, TTATTCACGTGAGCGT, GCGTGCACGTGAGTCT

Relative binding free energy, 0.35 kcal/mol:
TATCTCACGTGATGTA, AATTTCACGTGACAGG

Relative binding free energy, 0.05 kcal/mol:
TTTTCCACGTGTTTCT, TGTTGCACGTGTCATG, AGCATCACGTGGGTTG, GGTCACACGTGGGCGG

Relative binding free energy, 0.06 kcal/mol:
CATTTCACGTGTTTGA, ATACTCACGTGTATTG, TCAGTCACGTGGTGGA, CTTAGCACGTGCGTTT

Relative binding free energy, -0.15 kcal/mol:
TATGGCACGTGGGGAA, CGGTGCACGTGCGGCT, TAGGGCACGTGGGATT, AATGTCACGTGGGCGT

Relative binding free energy, -0.25 kcal/mol:
ACTCGCACGTGGGGGT, ATTAGCACGTGGTGTC

Relative binding free energy, 0.23 kcal/mol:
ACTGTCACGTGGTGAA, ATGGTCACGTGATAGG

Relative binding free energy, 0.08 kcal/mol:
TATGTCACGTGGCCTA, TTCGTCACGTGTGTTC

Relative binding free energy, 0.13 kcal/mol:
AAGGTCACGTGTCGTG

Relative binding free energy, -0.1 kcal/mol:
AACAACACGTGGGGTG, CTAGACACGTGGGGGG, GGTTGCACGTGGTCTA

Relative binding free energy, 0.33 kcal/mol:
GGTTTCACGTGTTGGA, TTGTTCACGTGATTCG, TGGGACACGTGAGGGG

Relative binding free energy, 0.04 kcal/mol:
CATGTCACGTGGGGCG, TGGTCCACGTGGTGTC, GGTAGCACGTGATAAG, TTATGCACGTGACATT

Relative binding free energy, -0.23 kcal/mol:
AAGGGCACGTGGGGTT, TATTCCACGTGGGGTA, GAGGGCACGTGGGCAT

Relative binding free energy, 0.51 kcal/mol:
TAGTTCACGTGAGTGC

Relative binding free energy, 0.47 kcal/mol:
GGTTTCACGTGAAAGA

Relative binding free energy, 0.36 kcal/mol:
TTGTTCACGTGTTTTT, GATGTCACGTGACTTG

Relative binding free energy, -0.06 kcal/mol:
GGGGACACGTGGGTTA, TGAGCCACGTGGAGGT

Relative binding free energy, -0.24 kcal/mol:
GCTGGCACGTGCGGGA, TTAGGCACGTGGGTGC

Relative binding free energy, 0.19 kcal/mol:
TTTATCACGTGATTAT, TAATGCACGTGAATGT, TCGGTCACGTGAGTGA

Relative binding free energy, -0.2 kcal/mol:
TTTGGCACGTGTCCTG

Relative binding free energy, 0.2 kcal/mol:
AGGGTCACGTGATTGA, TGTTGCACGTGGATTC, CGAGGCACGTGAAGGT, GATATCACGTGGTAGG, TCGGTCACGTGGTTTA, TTGATCACGTGTTGAT

Relative binding free energy, 0.09 kcal/mol:
GGGAACACGTGTTGCG, GATCGCACGTGTAAGG

Relative binding free energy, 0.26 kcal/mol:
AATTTCACGTGGTCTT, CATTACACGTGTGAGT

Relative binding free energy, -0.08 kcal/mol:
TATGGCACGTGATTAG, GGTCGCACGTGGGTCT, TGAAGCACGTGGTTCT, TGCTCCACGTGGCGGG, TAGTGCACGTGGTGGC

Relative binding free energy, -0.02 kcal/mol:
TGTTACACGTGCTGCG, TGATCCACGTGGAGGG, AAAGACACGTGTATGT, TTGTGCACGTGTTTAA, CTGGTCACGTGGGTCG, ATGTGCACGTGTGCAG, TGTGACACGTGTATGG

Relative binding free energy, -0.07 kcal/mol:
TGAGACACGTGGAGTG, ATTCGCACGTGGGGAA, GCTAGCACGTGCTGGG, TGGTCCACGTGGGAAT

Relative binding free energy, 0.16 kcal/mol:
ACTTTCACGTGTTGTG, AATGTCACGTGTTATT, TTTGTCACGTGTAGCG, TATGTCACGTGTGCTG, GTGGGCACGTGATGGT, CTTGGCACGTGAGTAG, GGTGTCACGTGTGTCG, CTGTACACGTGTGAGA

Relative binding free energy, -0.05 kcal/mol:
AGTAGCACGTGGTAAA, TTGGGCACGTGGGAAC, GCGGGCACGTGGACTG

Relative binding free energy, 0.22 kcal/mol:
GAGTCCACGTGTTTTG

Relative binding free energy, 0.02 kcal/mol:
GAGGGCACGTGTGGGG, ACTGGCACGTGATGGC, GACGGCACGTGTGTCG, ACTGACACGTGTGTGG, GGCGGCACGTGGAGTT, TATTGCACGTGGCTCG

Relative binding free energy, 0.07 kcal/mol:
GAAAACACGTGGGTTT, GGTGACACGTGGGAGT, GCTGTCACGTGGTGCT, GTCTGCACGTGGTTCA, AGATACACGTGTTGTA, GCGTGCACGTGTGATT

Relative binding free energy, 0.12 kcal/mol:
TGTAGCACGTGAAGGA, CGTAACACGTGTGTAG, AGTGGCACGTGAGTTG

Relative binding free energy, -0.03 kcal/mol:
GGGTGCACGTGTATCG, TGTTACACGTGTATTC, TTTGTCACGTGGGGGA, ATCTGCACGTGTGGGT, GATAGCACGTGCGTTT

Relative binding free energy, 0.41 kcal/mol:
TGGTTCACGTGATTAG, GTTTTCACGTGATGCA

Relative binding free energy, -0.04 kcal/mol:
TGTGGCACGTGATGCA, GGGGACACGTGGGAAG, ATGTTCACGTGCAGTT

Relative binding free energy, -0.11 kcal/mol:
CGAGACACGTGGTTGG, AGCGGCACGTGTGGTC, TGGACCACGTGGTTGT

Relative binding free energy, -0.27 kcal/mol:
GGGGGCACGTGATGCA

Relative binding free energy, 0 kcal/mol:
GGCGGCACGTGCGTCG, GGTAACACGTGTTTTG, GCGGCCACGTGGGGTT, GTTTGCACGTGCGGGA, CGGTGCACGTGTTGAA, GGGGTCACGTGGGGGA

Relative binding free energy, 0.1 kcal/mol:
TTAGTCACGTGTAGCT, TGATACACGTGCGGAG, TATGTCACGTGTGACT, AGAATCACGTGTTATT, CGGGTCACGTGGCGTT, GAGAACACGTGTGTGT, TGCTGCACGTGATAGT

Relative binding free energy, -0.29 kcal/mol:
ATAGGCACGTGGGCCG

Relative binding free energy, 0.34 kcal/mol:
GATGCCACGTGAGTTT, TGTTACACGTGAGTAA, TTAAACACGTGAAGTT
